Experimental data from PubChem BioAssay AID686970 (National Center for Advancing Translational Sciences (NCATS), 2013).
In all, about 360,000 compounds went through this assay and about 6,000 (1.7%) were called active. The inconclusive results got no clear call from the source; some entries with a clear call stand among them for comparison. The call rests on the fitted dose curve; in most records, active means well fitted cell-killing curve with a large enough effect; inconclusive means small, poorly fitted or top-dose-only effect, or effect the other way; inactive means flat fitted curve, though single readings scatter. Potencies of inconclusive entries are left out as doubtful fits.

experiment: qHTS for induction of synthetic lethality in tumor cells producing 2HG: qHTS for the HT-1080-NT fibrosarcoma cell line; details: HT-1080-NT fibrosarcoma viability, CellTiter-Glo ATP luminescence, 48 h; activity, negative = less viability: at 46.1 µM (top of the series) unless noted;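 further: NT is the 2HG producing partner of a matched IDH1 knockdown line; nearly all actives have a fitted effect of over 55% in size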;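 on activity, negative = less viability: 0% = DMSO-treated cells and -100% = media-only wells without cells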
Outline: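 A 48-hour cytotoxicity screen used HT-1080-NT cells plated 2 hours before compound delivery. ATP-based CellTiter-Glo luminescence measured viability, normalized to DMSO and no-cell controls.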
Potency means the concentration at half of the fitted maximal effect; tags describe the fitted curve by direction and shape.

| SMILES | activity, negative = less viability | Potency |
| --- | --- | --- |
| CCc1ccc(S(=O)(=O)N/N=C\c2ccc3c(c2)OCO3)cc1 | inactive: 3.13% |  |
| O=C(CCc1nnc(CCc2c[nH]c3ccccc23)o1)NC1CCC1 | inactive: -2.52% |  |
| CCc1ccc(C2=NNC(=Nc3c(C)n(C)n(-c4ccccc4)c3=O)SC2)cc1 | inactive: 0.99% |  |
| C=C(C)COc1ccc(-c2n[nH]c(C)c2-c2ccc(OC)cc2)c(O)c1 |  | active: 20.6 µM |
| Cc1ccc(S(=O)(=O)N(C)c2ccc3sc(C)nc3c2)cc1 |  | inconclusive [cytotoxic, single point] |
| C/C(=N\NC(=O)C12CCC(C)(C(=O)O1)C2(C)C)c1ccccc1O (centres undefined) |  | inconclusive [cytotoxic, single point] |
| O=C(N/N=C/c1cccs1)c1cc(C2CC2)nc2ccccc12 |  | inconclusive [cytotoxic, full curve] |
| COc1cc(NC(=O)CSc2nc(=O)n(CCN3CCOCC3)c3c2CCCC3)cc(OC)c1 | inactive: 0.165% |  |
| Cc1ccc2nc(-c3ccc(NC(=O)Cc4cccs4)cc3)[nH]c2c1 |  | inconclusive [cytotoxic, single point] |
| O=c1ccc(-c2ccc(S(=O)(=O)N3CCCCC3)o2)n[nH]1 | inactive: -0.0479% |  |
| O=C(CC1c2cc(F)ccc2C=C(c2ccsc2)N1c1ccc(C#CCCO)cc1)c1ccco1 (centres undefined) |  | inconclusive [cytotoxic, single point] |
| CC(C)N=C1CCCC1C(=S)SSC(=S)C1CCCC1=NC(C)C (centres undefined) |  | inconclusive [cytotoxic, single point] |
| CC(C)NS(=O)(=O)c1ccc(CCC(=O)N2CCc3ccccc3C2)cc1 |  | inconclusive [rising, partial curve] |
| COc1ccc(Cc2nnc(NC(=O)CSc3ccccc3)s2)cc1 |  | inconclusive [cytotoxic, single point] |
| CCOC(=O)[C@]12CCC=C1N(Cc1ccccc1)C(=O)[C@H](CC(=O)N1CCOCC1)C2 | inactive: 18.8% |  |
| Nc1nnc(-c2ccc(Cl)c([N+](=O)[O-])c2)s1 | inactive: 0.588% |  |
| CC(C)OC(=O)C1C(=O)CC(C)(O)C(C(=O)OC(C)C)C1c1ccc(F)cc1 (centres undefined) |  | inconclusive [cytotoxic, single point] |
| CCC(C)N(CC(=O)Nc1cccc(C)c1C)C(=O)CCl (centres undefined) |  | active: 1.64 µM |
| CC(Nc1cc(C)cc(C)c1)=[N+](C)CCNS(=O)(=O)c1ccc(Cl)cc1 | inactive: -0.723% |  |
| C#Cc1ccc(NC(=O)C2(C)CCN2C(=O)Cc2ccc(C(C)(C)C)cc2)cc1 (centres undefined) |  | inconclusive [cytotoxic, single point] |
| Cc1cccc(-n2c3nc(=O)[nH]c(=O)c-3cc3cc([N+](=O)[O-])ccc32)c1 |  | inconclusive [cytotoxic, partial curve] |
| O=C(NCc1ccc(F)cc1)c1cc(C2CCCCN2C(=O)c2ccc(Cl)cc2)on1 (centres undefined) |  | inconclusive [cytotoxic, partial curve] |

| SMILES | activity, negative = less viability | Potency |
| --- | --- | --- |
| CC(C)Cn1c(N)c(C(=O)COC(=O)c2ccc(Cl)cc2)c(=O)n(C)c1=O |  | inconclusive [cytotoxic, single point] |
| CCOc1ccc(CCNC(=O)CCS(=O)(=O)c2ccc(Cl)cc2)cc1OCC | inactive: -8.62% |  |
| O=C(NCc1ccccc1)c1noc2c1CCCC2 |  | inconclusive [cytotoxic, single point] |
| CCC(C)(C)NC(=O)c1cc(S(=O)(=O)N2CCc3ccccc32)cn1C | inactive: -2.92% |  |
| CCN1CCN(c2ccc(S(=O)(=O)N3CCCCC3)cc2NC(=O)c2ccc(F)cc2)CC1 | inactive: -4.41% |  |
| O=C(c1cc(-c2ccccc2)nc2ccccc12)N1CCCc2ccccc21 | inactive: -2.86% |  |
| O=C(NNC1=C(C(=O)C(F)(F)F)CCC1)c1ccc(Cl)cc1 |  | inconclusive [cytotoxic, single point] |
| COc1ccc2c(c1)/C(=C/c1cc(OC)c(OC)c(OC)c1)C(=O)N2 |  | active: 5.8 µM |
| CN(Cc1ccc(Cl)c(Cl)c1)C(C(=O)NCc1ccccc1)c1ccc(C(F)(F)F)cc1 (centres undefined) |  | inconclusive [cytotoxic, single point] |
| Oc1ccc(C2Nc3cccc4cccc(c34)N2)cc1 |  | inconclusive [cytotoxic, single point] |
| O=C(NCC1COc2ccccc2O1)c1ccc(NC(=O)C(c2ccccc2)c2ccccc2)cc1 (centres undefined) |  | inconclusive [cytotoxic, partial curve] |
| CCc1nc2c(OCCC3CCCCC3)cccn2c1N(C)C(=O)c1ccc(C)cc1 |  | inconclusive [cytotoxic, single point] |
| C[C@H](CO)N1C[C@H](C)[C@@H](CN(C)Cc2ccc3c(c2)OCO3)Oc2c(NC(=O)C3CCCCC3)cccc2C1=O | inactive: -7.63% |  |
| COc1ccc(NC(=S)N(CCCN2CCC(C)CC2)Cc2cccs2)cc1Cl |  | inconclusive [cytotoxic, partial curve, poor fit] |
| CC(C)CC(COCc1ccc(Cl)cc1)N1CCN(C(=O)c2ccc(C(F)(F)F)cc2)CCC1=O (centres undefined) |  | inconclusive [cytotoxic, single point] |
| Cc1cc(N2CCN(C)CC2)ccc1NC(=O)c1cccc(S(=O)(=O)N2CCc3ccccc3C2)c1 |  | inconclusive [cytotoxic, single point] |
| C=CCN(CC(=O)Nc1cccnc1)S(=O)(=O)c1ccc(Cl)cc1 | inactive: -0.136% |  |
| NC(=O)c1cc(N2C(=O)C=CC2=O)ccc1Cl |  | inconclusive [cytotoxic, single point] |
| CCCOC(=O)N[C@@H]1C(=O)N2C(C(=O)OCCC)=C(C)CS[C@H]12 |  | inconclusive [cytotoxic, single point] |
| CC(C)C1C(=O)N(Cc2cn(CCC3OCCO3)nn2)CCS(=O)(=O)N1Cc1ccc(-c2ccc(Cl)c(Cl)c2)cc1 (centres undefined) |  | inconclusive [cytotoxic, single point] |
| CCCCn1c(CN2CCN(c3cccc(Cl)c3)CC2)nc2c1c(=O)[nH]c(=O)n2C |  | active: 5.01 µM |
| Cc1nc(Nc2cccc(O)c2)c2oc3ccccc3c2n1 | inactive: 5.86% |  |
